In the supplement of paper PMC6531468:
The list shows a part of the results. These are enrichments in a pooled selection; single values are uncertain. Scores sum up all selected molecules that hold the word; the word was not tested alone.

Tested on: IMP3 KH3-4
Test: 6-mer SELEX enrichment z-score vs GST control; IMP3 is the RNA-binding protein IGF2BP3; higher = more enriched by binding
Conditions: construct: KH3-4 (377-579); SELEX round: R4
Method: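 SELEX-seq with GST-tagged IMP3 KH3-4 (Pro377-Lys579) and an N40 RNA pool, round 4. 6-mer z-score of sequence-tag enrichment normalised to the corresponding GST SELEX round; RNA k-mers written as DNA (T for U).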

Sequence of IMP3 KH3-4 (chain, as listed by the source): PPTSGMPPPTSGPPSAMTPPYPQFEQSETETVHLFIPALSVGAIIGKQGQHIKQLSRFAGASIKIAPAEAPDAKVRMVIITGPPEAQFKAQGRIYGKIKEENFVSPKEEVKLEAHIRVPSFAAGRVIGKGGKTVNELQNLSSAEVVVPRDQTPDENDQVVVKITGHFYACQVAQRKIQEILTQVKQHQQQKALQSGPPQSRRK

Sequence | 6-mer SELEX enrichment z-score
ACCAGC | -1.41
GCCGAG | -1.21
TCCGTG | -0.295
ATGTGC | 0.403
CTGGCG | -0.315
ATTATG | 1.7
CGTTCG | -0.476
TATCTT | 0.366
CGCCAG | -0.342
TATCGA | -0.648
TCGCCG | -0.417
ACACCT | -1.15
CGAGCC | -2.95
CGGGAC | -0.604
TGTCAA | -0.402
GACCTA | -1.26
TGAGAA | 0.731
CTCCCA | -1.05
AAGCAT | -0.247
CAGTTG | -0.09

Sequence | 6-mer SELEX enrichment z-score
GAGTTA | -0.028
AAAGCC | -1.73
TTGCGC | -0.359
CAGTTC | 0.228
GAGTGA | -0.387
GGGTTC | 0.295
TGTTGA | -0.14
CTGAAA | -0.631
CGATAG | -0.103
GCCTAG | -0.735
CAATGG | 0.177
CAGCTA | -0.205
TAGTTA | 0.047
CGGTGA | 0.212
CTTGGT | -0.101
GTAGGG | 0.428
TCAGAT | 0.747
ACGTTC | -0.502
TCGGAA | 0.159
TAGTTG | -0.007
